The chains are these.
T1: UNK ZnF1-3 (human, UniProt Q9C0B0 31-174)
T1 sequence: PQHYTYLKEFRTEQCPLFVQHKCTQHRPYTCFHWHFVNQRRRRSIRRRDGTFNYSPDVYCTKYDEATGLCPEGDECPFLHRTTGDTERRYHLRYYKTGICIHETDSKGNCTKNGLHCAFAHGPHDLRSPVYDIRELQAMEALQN

B1: chr14:78183846:78183847:+_ENSG00000119705_ENST00000557342|hu_hu|hu_hu_hu_mus_False|38_98 (ssRNA)
RNA: GGGAGUUCUACAGUCCGACGAUCUCUCAGAAAUCUUUCUUUCUUUUAUGUUUGAGCUCCGUGCAAAGCCUUUGCUCUUUGAGCUUGAACGUGGAUCUUUACUCCAUAAAGCACUGUCAGAAAAGGUAAUUUUUUUUUUAAAGACAACAGAGGAUUGAGCAUCA
B2: chr10:80924034:80924035:-_ENSMUSG00000034818_ENSMUST00000118763|mus_mus|motif|central (ssRNA)
RNA: GGGAGUUCUACAGUCCGACGAUCUUAAAACUGGAACUAUGGCAGCCAUCCGGGGGUUUCUACCUGAUUCGUGGGUUUCCGGAUCGAAGCCAAAAUAGAUAAAGCCCAAAAGACCCAGAUAAUGGACAAAAAACACUGAAGGAUCAACAGAGGAUUGAGCAUCA
B3: chr6:11883424:11883425:+_ENSMUSG00000029629_ENSMUST00000115511|mus_hu|FALSE|FALSE (ssRNA)
RNA: GGGAGUUCUACAGUCCGACGAUCCUUUUUCUUUCUAGGUCUUUCUCCAUUUUCUUCUUCUUCCUUCUUUUCCAUUUUAAUUAAUUGUUUUUCUGAUGAUAGUACUUCUUCCUCUGCAGAAUUUUUAAGUUGUUCUUCUUUUACCAACAGAGGAUUGAGCAUCA
B4: 51939381_51939501_5263_3pUTR_ENSMUSG00000020349_ENSMUST00000020608|mouse|control|control (ssRNA)
RNA: GGGAGUUCUACAGUCCGACGAUCCCUUCAAUCCCAGCACUCGGGAGGCAGAGACAGGCGGAUUUCUGAGUUUGAGGCCAGCCUGGUCUACAAAGUGAGCUCCAGGACAGCCAGGGCUAUACAGAGAAACCCUGUCUCAAAAAACAACAGAGGAUUGAGCAUCA
B5: chrX:50293416:50293417:+_ENSMUSG00000025626_ENSMUST00000078944|mus_mus|motif|central (ssRNA)
RNA: GGGAGUUCUACAGUCCGACGAUCUUUCUUCUUAGUCUUUGGAGAUGAGGGCUCCAGUUCAUGCUCAUUAAAACUUUCUUCGGAAUCAGCUUCCGAGUUAUGUGCAGUUUUCUUGUGUUUUCGACAAUAAACCAUGUAAAUCCCCAACAGAGGAUUGAGCAUCA
B6: chr14:39627603:39627604:-_ENSG00000182400_ENST00000330149|hu_mus|FALSE|FALSE (ssRNA)
RNA: GGGAGUUCUACAGUCCGACGAUCGAACUUCAUGAUGUCUAAUUCAUCCUUGAACCUUGCAGUAUCUUUCGUAAACCUUUCUAUCAGUCCUUGCCCCACUCGGAACCCCAUGCUCUCCAGCUUAGUAACACACCUUCCAUUUUCCAACAGAGGAUUGAGCAUCA
B7: chr17:76047126:76047127:+_ENSG00000078687_ENST00000588847|hu_hu|FALSE|FALSE (ssRNA)
RNA: GGGAGUUCUACAGUCCGACGAUCUGUCUGUUUCACAGAAGCAGCUCCUCCCCAGUUACUCACAUUGUUGUCUUGGGGUUUGCUAGCCCAGUUCUGUUGGGGGCCAGGUUUUAAAGUCUCCCCCCAGUUUGUACCUGGAUUGGCCAACAGAGGAUUGAGCAUCA
B8: chr1:173068877:173068878:-_ENSMUSG00000058076_ENSMUST00000081560|mus_hu|FALSE|FALSE (ssRNA)
RNA: GGGAGUUCUACAGUCCGACGAUCGUUCCCAGGGAGUAACAGGGCCGACAUGCCAAAAAGAGAGACCCCUGCACUCAAAGCAAUACCAGUGCCACGGUGGCAGAUGGACAUCGCCAUGGGAAGAGACCAACUGUAGAUAGUAAUCAACAGAGGAUUGAGCAUCA
B9: chr7:141441981:141441982:+_ENSG00000106028_ENST00000265304|hu_mus|hu_hu_hu_mus_False|78_78 (ssRNA)
RNA: GGGAGUUCUACAGUCCGACGAUCCUCAUGUCUUACAAACUGACGAAAUACCUGUAAUACAGGUCUUCGAAACAUGGCUUCUGUUUUUCUUACAACCUAAUCUUUAGGCUUUUCCUAAAGGAAAGAAAGAAAAGAGAAAAAUGACAACAGAGGAUUGAGCAUCA
B10: chr16:20935853:20935854:+_ENSG00000102897_ENST00000219168|hu_hu|motif|central (ssRNA)
RNA: GGGAGUUCUACAGUCCGACGAUCAAGGGUCAAAAGACAACAAAAAAGCACACACCAAAAAACCUCACUUUAAGCAAAUCGGUAACUUGAAAAAAAAAAAGCCUAAGAAUAUUCUGAGAGUGGUACAUAGUUUUAUAGUAGCCACAACAGAGGAUUGAGCAUCA
B11: chr16:94651144:94651145:+_ENSMUSG00000040785_ENSMUST00000117648|mus_hu|mus_mus_mus_hu_True|48_58 (ssRNA)
RNA: GGGAGUUCUACAGUCCGACGAUCAUUUUCUUGAAUCAAGUGGCGAAUAACAUAGUCCACUGCUUCAUUUAGAAAAUUUUUGCUAGAAAAGCAUGUUGUAUAGUCUUCUGUGCUCAAAACUUUCCAAGAAAGCAAUUCUUUGAGCAACAGAGGAUUGAGCAUCA
B12: chr2:114393739:114393740:-_ENSMUSG00000057147_ENSMUST00000102542|mus_mus|motif|central (ssRNA)
RNA: GGGAGUUCUACAGUCCGACGAUCAUUAGAAGCUAUCAUCUCUCGGAGCAAAUCUUCCUGGUUUCUUUGCCAAAGAUAAGCGGAAGGCUGGAGAUUGAGUCGUUUACAUACAUUUUCUACUCGUCCACGUUGAUAGUCAGAGAGCAACAGAGGAUUGAGCAUCA
B13: chr19:16212804:16212805:+_ENSG00000167460_ENST00000300933|hu_mus|hu_hu_hu_mus_False|38_38 (ssRNA)
RNA: GGGAGUUCUACAGUCCGACGAUCAACAAUUCUGGAGUGAAGGAAAGAUGUAACAUGGAACAGCAUUAAAGCUCAGUCAGAAGGCACAUGGGCAACAAUGACUAUUUCAGCAUUCUCGCUUGGAAUGCUUAAAGACAAUCUGUUCAACAGAGGAUUGAGCAUCA
B14: chr8:117878989:117878990:-_ENSG00000164754_ENST00000297338|hu_hu|hu_hu_hu_mus_True|28_108 (ssRNA)
RNA: GGGAGUUCUACAGUCCGACGAUCCCAGAGGCCCUCUUUUACUGAGGACAAAAUGUGCGUAGAACAUUUUUCUUAUUUGCUAUGAAAUAAGAAGAAACCUGGAUCUCCCGCUGGGAGCGGGAGGGGUGGGUGGCCCGGGGAGGGCAACAGAGGAUUGAGCAUCA

This is one part of the list.

This experiment has as its target T1, UNK ZnF1-3. Nature of the experiment: nsRBNS (natural sequence RNA bind-n-seq); RBNS binding buffer (assumed for nsRBNS): 25 mM Tris pH 7.5, 150 mM KCl, 3 mM MgCl2, 0.01% Triton X-100, 500 ug/ml BSA, 20 U/ml SUPERase-In, 4 C; UNK is unkempt and MSI1 is Musashi-1; names of the RNAs are library labels; protein concentration not given here; high values mean tight binding.
Consider B1, for which the binding signal turned out to be 0.785 enrichment R.
For B2 the value was 1.58 enrichment R; for B3, 0.28 enrichment R; for B4, 0.757 enrichment R.
Take B5: the binding signal was 0.543 enrichment R.
For B6 the value was 0.804 enrichment R; for B7, 0.974 enrichment R; for B8, 1.02 enrichment R.
Turning to B9, the binding signal stood at 0.639 enrichment R.
B10: the binding signal came out at 2.63 enrichment R.
For B11 the value was 0.396 enrichment R.
Molecule B12 gave a binding signal of 0.968 enrichment R.
For the molecule B13, the binding signal was 1.16 enrichment R.
Turning to B14, the binding signal was found to be 1.22 enrichment R.

The values above are taken from paper PMC12136788.
